Test results taken from article PMC4336329 (PLoS ONE, 2015).
Among all 310,000 compounds or so, about 14,000 (4.5%) showed an effect of 50% or more. Effects have a minus sign here. The list shows a part of the results.

Biological target: human ether-à-go-go-related gene (hERG) potassium channel (human, UniProt Q12809)
Assay: primary screen, population patch clamp on CHO cells stably expressing hERG
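Further: peak tail current of the secondary pulse compared with the same well before compound.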

human ether-à-go-go-related gene (hERG) potassium channel, sequence (Q12809 whole entry, looked up): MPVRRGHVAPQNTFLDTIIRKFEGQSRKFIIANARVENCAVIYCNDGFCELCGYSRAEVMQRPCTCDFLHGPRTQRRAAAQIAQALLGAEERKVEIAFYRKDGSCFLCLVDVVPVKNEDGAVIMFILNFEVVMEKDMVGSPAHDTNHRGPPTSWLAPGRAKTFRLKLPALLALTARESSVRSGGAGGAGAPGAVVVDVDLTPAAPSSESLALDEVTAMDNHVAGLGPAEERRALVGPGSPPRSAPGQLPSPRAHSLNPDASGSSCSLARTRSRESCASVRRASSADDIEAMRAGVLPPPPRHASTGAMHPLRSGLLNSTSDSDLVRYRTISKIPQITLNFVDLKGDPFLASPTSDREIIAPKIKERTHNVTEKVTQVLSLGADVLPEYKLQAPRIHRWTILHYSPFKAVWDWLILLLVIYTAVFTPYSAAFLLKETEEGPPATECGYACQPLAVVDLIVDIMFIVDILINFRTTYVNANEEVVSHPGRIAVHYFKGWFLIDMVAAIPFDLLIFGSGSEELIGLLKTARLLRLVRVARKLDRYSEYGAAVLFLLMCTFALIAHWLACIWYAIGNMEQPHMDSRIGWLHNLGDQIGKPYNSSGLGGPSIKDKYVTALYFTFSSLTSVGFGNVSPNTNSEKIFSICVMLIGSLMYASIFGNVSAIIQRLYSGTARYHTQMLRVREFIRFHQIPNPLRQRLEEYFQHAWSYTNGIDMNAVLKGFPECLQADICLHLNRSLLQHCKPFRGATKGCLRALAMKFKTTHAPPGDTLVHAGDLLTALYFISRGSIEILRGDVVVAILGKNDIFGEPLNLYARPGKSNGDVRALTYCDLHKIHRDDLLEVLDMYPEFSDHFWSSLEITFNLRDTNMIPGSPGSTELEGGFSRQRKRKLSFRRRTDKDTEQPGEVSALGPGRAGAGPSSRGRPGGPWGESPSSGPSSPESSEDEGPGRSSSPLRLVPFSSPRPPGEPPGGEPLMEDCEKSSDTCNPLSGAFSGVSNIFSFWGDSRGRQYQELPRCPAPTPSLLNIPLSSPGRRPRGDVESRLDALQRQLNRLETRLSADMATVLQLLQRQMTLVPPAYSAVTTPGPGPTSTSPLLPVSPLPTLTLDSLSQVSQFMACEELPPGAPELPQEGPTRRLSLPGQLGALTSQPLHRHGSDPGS

| Structure (SMILES) | hERG current change (%, negative = inhibition) at 10uM [%] |
| --- | --- |
| O=C(Nc1nnc(SCc2ccccc2)s1)c1cccs1 | 13.1 |
| NC(=O)c1cnn(-c2ccc3ccccc3c2)c1N | 13 |
| COC(=O)CNc1ccc2c(c1)OCO2 | 2.66 |
| O=P(OC1CCCCC1)(OC1CCCCC1)C(O)c1cccnc1 (stereo not shown) | 5.74 |
| CC1(C)C(=O)C2(CCCCC2)C(=O)OC1c1cccs1 (stereo not shown) | 10.8 |
| O=C(CCCN1C(=O)/C(=C/c2cccc(Br)c2)SC1=S)Nc1ccccn1 | 3.95 |
| Nc1nc(-c2ccc(Br)s2)c(Br)s1 | 12.2 |
| CC1Cc2ccccc2N1CC(=O)NC(=O)NC(C)(C)C (stereo not shown) | -1.69 |
| CCCN(CCC)CCNC(=O)c1cc2c(C)nc3ccccc3c2o1 | -29.7 |
| CC(C)c1ccccc1NC(=O)COC(=O)c1c2c(nc3ccccc13)CCN(Cc1ccccc1)C2 | 12.9 |
| COC(Cc1nnc(SC)n1-c1ccccc1)OC | -2.97 |
| Cc1cc(=O)oc2ccc(OCC(=O)N3CCC(C)CC3)cc12 | -4.23 |
| Cc1cc(OC(=O)c2cc(C(F)(F)F)cc(C(F)(F)F)c2)c([N+](=O)[O-])c(=O)[nH]1 | 1.6 |
| O=C(CCNS(=O)(=O)c1ccccc1C(F)(F)F)N1CCN(c2ccccc2O)CC1 | -26.9 |
| Cc1ccc(N2C(=O)CC(Sc3ncccn3)C2=O)cc1C (stereo not shown) | 11.6 |
| O=C(Nc1cccc(S(=O)(=O)N2CCOCC2)c1)c1cc2ccccc2o1 | -9.76 |
| COc1ccc(CNC(=O)N[C@@H](Cc2c[nH]c3ccccc23)C(=O)O)cc1 | 22.8 |
| COc1ccccc1-c1nnc2n1N=C(c1ccc(O)c(O)c1)CS2 | -0.453 |
| Cc1ccccc1S(=O)(=O)NC1=NCCCCC1 | -1.22 |
| CCOCCCNC(=O)c1ccc(NC(=O)C2=CSCCO2)cc1 | 15.4 |
| COc1ccc(NC(=S)N(Cc2cccnc2)Cc2ccco2)cc1 | -24.5 |
| CCOc1cccc(C2C(C(=O)c3ccco3)=C(O)C(=O)N2Cc2ccncc2)c1 (stereo not shown) | 19.5 |

| Structure (SMILES) | hERG current change (%, negative = inhibition) at 10uM [%] |
| --- | --- |
| CCN1CCN(c2ccc(N3CCN(S(=O)(=O)c4cc([N+](=O)[O-])ccc4C)CC3)nn2)CC1 | -54.4 |
| Cc1cc(C)cc(C(=O)Nc2ccc(N3CCCC3)cc2)c1 | 39.7 |
| CCc1ccccc1N1C(=O)C(Cl)=C(N2CCOCC2)C1=O | 14.7 |
| COCCn1c(SCc2cc(C(C)=O)ccc2OC)nc2cc(Cl)ccc2c1=O | -12.8 |
| Cc1ccccc1C(=O)NC1CCN(CC(=O)Nc2ccc3c(c2)OCO3)CC1 | -47.3 |
| COc1ccc(N(C(=O)c2ccn[nH]2)C(C(=O)NC(C)(C)C)c2ccc(F)cc2)cc1 (stereo not shown) | -0.51 |
| O=c1[nH]c(=S)n(Cc2ccc(F)cc2)c(O)c1C=NCc1cccnc1 | -16.6 |
| O=C(CNc1cccc2ccccc12)N/N=C/c1cccc(Oc2ccccc2)c1 | 18.2 |
| COc1ccc(S(=O)(=O)NC2CCCCCC2)c(OC)c1 | 10.6 |
| O=C1CN(C(=O)COC(=O)CCSc2ccccc2Cl)c2ccccc2N1 | -0.554 |
| COc1ccc(NC(=O)C2CC2)cc1S(=O)(=O)N1CCOCC1 | -12.6 |
| CCC1(C)Cc2c(sc3nc4n(c(=O)c23)CCCS4)CO1 (stereo not shown) | -0.139 |
| CC(C)=N/N=C(/c1ccc([N+](=O)[O-])cc1)C12CN3CN(CN(C3)C1)C2 | -8.65 |
| CCN1CCN(C(c2ccc(F)cc2)c2nnnn2Cc2cccs2)CC1 (stereo not shown) | -59.4 |
| Nc1ccc(-c2ccc(N)c(C(=O)O)c2)cc1C(=O)O | 7.74 |
| N/C(=N\c1nc2c(c(=O)[nH]1)CCC2)Nc1ccccc1 | 10 |
| COc1cccc(NS(=O)(=O)c2c(C)n(C)c(=O)n(C)c2=O)c1 | -19.9 |
| Cl.Clc1ccc(OCCCCN2CCc3ccccc3C2)cc1 | -68.1 |
| O=C(NCCCn1ccnc1)C(Cc1ccccc1)N1C(=O)c2ccccc2C1=O (stereo not shown) | -34.5 |
| COc1ccc(N2CCN(C(=O)C3CCCN(c4ncnc5c4nc4n5CCCCC4)C3)CC2)cc1 (stereo not shown) | -68.7 |
| COc1ccccc1C1CC(c2ccc(Cl)cc2)Nc2nc(N)nn21 (stereo not shown) | -45.8 |
